# Experimental data taken from PubChem BioAssay AID2147 (National Center for Advancing Translational Sciences (NCATS), 2009).
# About 3,600 (1.6%) of roughly 230,000 compounds were called active. The inconclusive results got no clear call from the source; some entries with a clear call stand among them for comparison. Calls come from the whole dose curve; as a rule, active = well fitted inhibition curve with a large enough effect (not every such curve was filed as active); inconclusive = small, poorly fitted or top-dose-only effect, or another doubt; inactive = no such curve, though single readings can be large or run the other way. A potency beside an inconclusive call is a rough fit, not a confirmed value.
# Biological target: Lysine-specific demethylase 4E (Homo sapiens) (UniProt B2RXH2)
# UniProt B2RXH2, sequence (B2RXH2 whole entry, looked up, the tested form may be a part): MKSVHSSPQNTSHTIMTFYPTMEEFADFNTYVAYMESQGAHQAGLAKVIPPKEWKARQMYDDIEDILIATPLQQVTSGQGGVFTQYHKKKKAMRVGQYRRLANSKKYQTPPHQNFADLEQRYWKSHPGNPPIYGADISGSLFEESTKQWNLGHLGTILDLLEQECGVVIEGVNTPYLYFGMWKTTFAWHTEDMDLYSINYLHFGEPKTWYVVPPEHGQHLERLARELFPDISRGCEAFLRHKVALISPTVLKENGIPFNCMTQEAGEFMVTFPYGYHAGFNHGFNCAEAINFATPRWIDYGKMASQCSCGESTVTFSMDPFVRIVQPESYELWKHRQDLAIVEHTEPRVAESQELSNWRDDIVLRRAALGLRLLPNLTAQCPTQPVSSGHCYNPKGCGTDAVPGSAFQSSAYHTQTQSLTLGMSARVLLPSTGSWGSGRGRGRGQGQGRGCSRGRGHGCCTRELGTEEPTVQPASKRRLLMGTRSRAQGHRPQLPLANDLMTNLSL
# Assay: qHTS Assay for Inhibitors of Human Jumonji Domain Containing 2E (JMJD2E)
# Conditions: JMJD2E catalytic domain, FDH-coupled NADH fluorescence (FDH is formaldehyde dehydrogenase); series mostly up to 57.1 µM; activity change, negative = inhibition: at the top concentration
# Note: nearly all actives have a fitted effect of over 50% in size.
# Potency is the fitted concentration of half-maximal effect; tags give direction and shape of the fitted curve.
# 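Throughout, for activity change, negative = inhibition: 0% = wells with enzyme and -100% = buffer wells without enzyme.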
Compound,Potency,"activity change, negative = inhibition"
CC(/C=N/NC(=O)c1ccc(Br)cc1)=C\c1ccccc1,"inconclusive: 25.1 µM [inhibitor, single point]",
CCC(=O)NC(=S)Nc1cccc(NC(=O)c2ccccc2C)c1,,inactive: 18.4%
COc1ccc(NC(=S)N2CCN(C(=O)c3ccco3)CC2)c(OC)c1,,inactive: 2.64%
Cc1ccc(OCC(=O)Nc2ccc(S(=O)(=O)Nc3ccccn3)cc2)cc1C,"inconclusive: 35.5 µM [inhibitor, single point]",
Cc1c(C(=O)Nc2ccc(F)cc2)oc2ccc(S(=O)(=O)N3CC(C)CC(C)C3)cc12 (stereo not drawn),"inconclusive: 7.08 µM [inhibitor, single point]",
COc1cc(-c2nnc(SCC3(c4ccccc4)OCCO3)o2)cc(OC)c1OC,"inconclusive: 22.4 µM [inhibitor, partial curve]",
COCCn1nnnc1CN(Cc1cccnc1)Cc1cc2cc(OC)ccc2[nH]c1=O,"inconclusive: 28.2 µM [inhibitor, partial curve]",
Cc1ccnc(N2CCC(C(=O)NNC(=O)c3ccccc3C)CC2)n1,"inconclusive: 31.6 µM [inhibitor, partial curve]",
CC(C)(C)c1ccc(C(CC(=O)O)NC(=O)Cc2ccc(F)cc2)cc1 (stereo not drawn),,inactive: 9.27%
c1ccc(Cc2nnc(N3CCOCC3)c3ccccc23)cc1,,inactive: -5.41%
Cc1cc(-c2ccccc2)n2ncc(C#N)c2n1,"inconclusive: 28.2 µM [inhibitor, partial curve]",
COc1cc(/C=C/C(=O)OCC(=O)c2c(N)n(C)c(=O)n(C)c2=O)ccc1O,"inconclusive: 35.5 µM [inhibitor, partial curve]",
N#CCC(=O)N/N=C/c1cc(-c2ccccc2)n(-c2ccc(Cl)cc2)c1-c1ccccc1,"inconclusive: 28.2 µM [inhibitor, partial curve]",
Cc1cc(C)nc(NC(=O)/C=C/c2cccs2)c1,"inconclusive: 25.1 µM [inhibitor, partial curve]",
COc1cccc(C(=O)Nc2ccc(-c3nc4ccccc4o3)c(O)c2)c1,"inconclusive: 28.2 µM [inhibitor, partial curve]",
COc1ccccc1-n1c(=O)[nH]c2c(C(N)=O)nc(-c3cccnc3)nc21,"inconclusive: 28.2 µM [inhibitor, partial curve]",
CN=C1NN=C(c2cc(C)n(-c3ccc(Cl)cc3)c2C)CS1,"inconclusive: 12.6 µM [inhibitor, partial curve]",
CCOc1ccc(-c2n[nH]c(=S)o2)cc1,"inconclusive: 35.5 µM [inhibitor, partial curve]",
CC1OC(OCC2OC(Oc3c(-c4ccc(O)c(O)c4)oc4cc(O)cc(O)c4c3=O)C(O)C(O)C2O)C(O)C(O)C1O (stereo not drawn),active: 11.2 µM,
CC(C)CCN(C(=S)Nc1cccc(F)c1)C1CCN(C(C)C)CC1,,inactive: 3.98%
COCCCNCCCCOc1ccc(Br)cc1C,"inconclusive: 31.6 µM [inhibitor, single point]",
COc1cc2c(cc1OC)C(c1ccc(C)o1)CC(=O)N2 (stereo not drawn),"inconclusive: 39.8 µM [inhibitor, single point]",

Compound,Potency,"activity change, negative = inhibition"
N#C/C(=C1\C(=O)Nc2c(Cl)cc(Cl)cc21)c1nnc2n1CCCCC2,"inconclusive: 39.8 µM [inhibitor, single point]",
Cc1ccc(S(=O)(=O)/C(C#N)=C/c2c(N3CCN(C)CC3)nc3c(C)cccn3c2=O)cc1,"inconclusive: 39.8 µM [inhibitor, single point]",
COC(=O)C1(CC(C)C)C=C2C(=C(C(C)C)C(=O)C2C)CN1 (stereo not drawn),"inconclusive: 31.6 µM [inhibitor, single point]",
CC(C)c1ccc(OCC(=O)Nc2cccc(C(=O)Nc3ccccc3C(=O)O)c2)cc1,,inactive: 2.43%
CCN(Cc1ccccc1)c1ccc(/C=N/NC(=O)c2cccc(S(=O)(=O)N3CCOCC3)c2)cc1,"inconclusive: 28.2 µM [inhibitor, partial curve]",
O=C(c1ccco1)N1CCN(C(c2cccs2)c2nnnn2C2CCCC2)CC1 (stereo not drawn),,inactive: -5.98%
COC(=O)N1[C@H](C)C=C[C@]1(Cc1ccccc1)C(=O)NCCCNc1ncc(C(F)(F)F)cc1Cl,"inconclusive: 0.794 µM [inhibitor, full curve, poor fit]",
Cc1cc(C)c(C(=O)COC(=O)c2cc([N+](=O)[O-])ccc2NCCO)cc1C,,inactive: 8.05%
COc1ccc2oc(=O)c(-c3csc(Nc4ccc(O)cc4)n3)cc2c1,,inactive: -1.96%
Cc1cccc(NNC(=O)c2c(F)cccc2Cl)c1,,inactive: -6.8%
CC(C)Sc1nc2c(c(=O)[nH]c(=O)n2C)n1CC(O)COc1ccccc1 (stereo not drawn),,inactive: -6.28%
CCOc1ccc(-c2nnc3ccc(SCC(=O)NCc4ccco4)nn23)cc1,"inconclusive: 39.8 µM [inhibitor, single point]",
Cc1nc(COc2ccccc2Cl)sc1-c1ccnc(N)n1,"inconclusive: 39.8 µM [inhibitor, single point]",
O=C(NCc1cccnc1)c1ccc2c(c1)N(Cc1ccccc1)CCS2,"inconclusive: 31.6 µM [inhibitor, partial curve]",
CCCCNC(=O)C(c1ccc(OCC(=O)OC)c(C(=O)OC)c1)N(CCOC)C(=O)CCCCCN1C(=O)NC(c2ccc(-c3ccccc3)cc2)C(C(=O)OCc2ccccc2)=C1C (stereo not drawn),"inconclusive: 25.1 µM [inhibitor, single point]",
CCc1ccc2nc3nc(C)cc(C)c3c(N)c2c1,"inconclusive: 25.1 µM [inhibitor, partial curve]",
Cc1ccc(S(=O)(=O)c2c(N)n(-c3ccccc3)c3nc4ccccc4nc23)cc1,"inconclusive: 28.2 µM [inhibitor, partial curve]",
CCN(CC)CCCNC(=O)Cn1ccc2ccccc2c1=O,"inconclusive: 39.8 µM [inhibitor, single point]",
Cc1cc(=O)n(C)c2ccccc12,"inconclusive: 31.6 µM [inhibitor, partial curve]",
O=C(NNC(=O)c1cnccn1)c1cccc([N+](=O)[O-])c1,,inactive: -3.56%
O=C(c1ccc(Cl)cc1)C1C2C(=O)N(c3ccccc3)C(=O)C2C2CCCN21 (stereo not drawn),"inconclusive: 39.8 µM [inhibitor, single point]",
